# The other results are listed elsewhere or left out.
# B1: SJA (Sophora japonica) (protein)
# chain: FLGLFNSGGYSSSYQIVAVEFDTYINEWDPKTRHIGIDINSINSTKTVTWGWENGEVAIVLISYKAATETLTVSLTYPSSQTSYILSAAVDLKSILPEWVRIGF
# How the values were obtained:
# Test in all cases: glycan array binding signal (z-score within array); higher = stronger binding
# Conditions in all cases: glycan notation: IUPAC condensed, linker removed
# GlcNAc(b1-3)GalNAc = molecular target: GlcNAc(b1-3)GalNAc
# Method in brief: (§1)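 Arrays were curated from the Consortium for Functional Glycomics database, 3228 in total, and kept only where the protein sequence was available. Binding is expressed as a within-array Z-score. This score was averaged across arrays of the same protein sequence at different concentrations or buffers and across linkers, and negative values can be read as non-binding.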
# GlcNAc(b1-3)Man = molecular target: GlcNAc(b1-3)Man
# Method in brief: as §1
# [1] = molecular target: GlcNAc(b1-3)[GlcNAc(b1-4)][GlcNAc(b1-6)]GlcNAc
# Method in brief: as §1
# [2] = molecular target: GlcNAc(b1-3)[GlcNAc(b1-6)]Gal(b1-4)GlcNAc
# Method in brief: as §1
# [3] = molecular target: GlcNAc(b1-3)[GlcNAc(b1-6)]GalNAc
# Method in brief: as §1
# [4] = molecular target: GlcNAc(b1-3)[GlcNAc(b1-6)]GlcNAc(b1-4)GlcNAc
# Method in brief: as §1
# [5] = molecular target: GlcNAc(b1-4)Gal(b1-4)GlcNAc
# Method in brief: as §1
# GlcNAc(b1-4)GlcNAc = molecular target: GlcNAc(b1-4)GlcNAc
# Method in brief: as §1
# [6] = molecular target: GlcNAc(b1-4)GlcNAc(b1-4)GlcNAc
# Method in brief: as §1
# [7] = molecular target: GlcNAc(b1-4)GlcNAc(b1-4)GlcNAc(b1-4)GlcNAc(b1-4)GlcNAc
# Method in brief: as §1
# [8] = molecular target: GlcNAc(b1-4)GlcNAc(b1-4)GlcNAc(b1-4)GlcNAc(b1-4)GlcNAc(b1-4)GlcNAc
# Method in brief: as §1
# [9] = molecular target: GlcNAc(b1-4)[GlcNAc(b1-6)]GalNAc
# Method in brief: as §1
# [10] = molecular target: GlcNAc(b1-6)Gal(b1-4)GlcNAc
# Method in brief: as §1
# GlcNAc(b1-6)GalNAc = molecular target: GlcNAc(b1-6)GalNAc
# Method in brief: as §1
# [11] = molecular target: GlcNAc6S(b1-3)Gal(b1-4)GlcNAc
# Method in brief: as §1
# Kdn(a2-3)Gal(b1-3)GalNAc = molecular target: Kdn(a2-3)Gal(b1-3)GalNAc
# Method in brief: as §1
# Kdn(a2-3)Gal(b1-3)GlcNAc = molecular target: Kdn(a2-3)Gal(b1-3)GlcNAc
# Method in brief: as §1
# Kdn(a2-3)Gal(b1-4)Glc = molecular target: Kdn(a2-3)Gal(b1-4)Glc
# Method in brief: as §1
# Kdn(a2-3)Gal(b1-4)GlcNAc = molecular target: Kdn(a2-3)Gal(b1-4)GlcNAc
# Method in brief: as §1
# [12] = molecular target: Kdn(a2-3)Gal(b1-4)[Fuc(a1-3)]GlcNAc
# Method in brief: as §1
# Kdn(a2-6)Gal(b1-4)GlcNAc = molecular target: Kdn(a2-6)Gal(b1-4)GlcNAc
# Method in brief: as §1
# [13] = molecular target: Man(a1-2)Man(a1-2)Man(a1-3)Man
# Method in brief: as §1
# [14] = molecular target: Man(a1-2)Man(a1-2)Man(a1-6)[Man(a1-3)]Man
# Method in brief: as §1
# Man(a1-2)Man(a1-3)Man = molecular target: Man(a1-2)Man(a1-3)Man
# Method in brief: as §1
# [15] = molecular target: Man(a1-2)Man(a1-3)[Man(a1-2)Man(a1-6)]Man
# Method in brief: as §1
# [16] = molecular target: Man(a1-2)Man(a1-3)[Man(a1-2)Man(a1-6)]Man(a1-6)[Man(a1-2)Man(a1-2)Man(a1-3)]Man
# Method in brief: as §1
# [17] = molecular target: Man(a1-2)Man(a1-3)[Man(a1-2)Man(a1-6)]Man(a1-6)[Man(a1-2)Man(a1-2)Man(a1-3)]Man(b1-4)GlcNAc(b1-4)GlcNAc
# Method in brief: as §1
# [18] = molecular target: Man(a1-2)Man(a1-3)[Man(a1-6)]Man(a1-6)[Man(a1-2)Man(a1-3)]Man(b1-4)GlcNAc(b1-4)GlcNAc
# Method in brief: as §1
# [19] = molecular target: Man(a1-2)Man(a1-6)[Man(a1-3)]Man(a1-6)[Man(a1-2)Man(a1-2)Man(a1-3)]Man
# Method in brief: as §1
# [20] = molecular target: Man(a1-2)Man(a1-6)[Man(a1-3)]Man(a1-6)[Man(a1-2)Man(a1-2)Man(a1-3)]Man(b1-4)GlcNAc(b1-4)GlcNAc
# Method in brief: as §1
# Man(a1-3)[Man(a1-6)]Man = molecular target: Man(a1-3)[Man(a1-6)]Man
# Method in brief: as §1
# [21] = molecular target: Man(a1-3)[Man(a1-6)]Man(a1-6)[Man(a1-2)Man(a1-3)]Man(b1-4)GlcNAc(b1-4)GlcNAc
# Method in brief: as §1
# [22] = molecular target: Man(a1-3)[Man(a1-6)]Man(a1-6)[Man(a1-3)]Man
# Method in brief: as §1
# [23] = molecular target: Man(a1-3)[Man(a1-6)]Man(a1-6)[Man(a1-3)]Man(b1-4)GlcNAc(b1-4)GlcNAc
# Method in brief: as §1
# [24] = molecular target: Man(a1-3)[Man(a1-6)]Man(b1-4)GlcNAc(b1-4)GlcNAc
# Method in brief: as §1
# [25] = molecular target: Man(a1-3)[Man(a1-6)]Man(b1-4)GlcNAc(b1-4)[Fuc(a1-6)]GlcNAc
# Method in brief: as §1
# Man(a1-6)Man = molecular target: Man(a1-6)Man
# Method in brief: as §1
# Man(b1-4)GlcNAc = molecular target: Man(b1-4)GlcNAc
# Method in brief: as §1
# MurNAc(b1-4)GlcNAc = molecular target: MurNAc(b1-4)GlcNAc
# Method in brief: as §1
# Neu5Ac(a2-3)Gal = molecular target: Neu5Ac(a2-3)Gal
# Method in brief: as §1
# [26] = molecular target: Neu5Ac(a2-3)Gal(b1-3)GalNAc
# Method in brief: as §1
# [27] = molecular target: Neu5Ac(a2-3)Gal(b1-3)GalNAc(b1-3)Gal(a1-4)Gal(b1-4)Glc
# Method in brief: as §1
# [28] = molecular target: Neu5Ac(a2-3)Gal(b1-3)GalNAc(b1-3)Gal(b1-4)GlcNAc
# Method in brief: as §1
# [29] = molecular target: Neu5Ac(a2-3)Gal(b1-3)GalNAc(b1-4)[Neu5Ac(a2-3)]Gal(b1-4)Glc
# Method in brief: as §1
# [30] = molecular target: Neu5Ac(a2-3)Gal(b1-3)GalNAc(b1-4)[Neu5Ac(a2-8)Neu5Ac(a2-3)]Gal(b1-4)Glc
# Method in brief: as §1
binder,measurement,setting,value
B1,glycan array binding signal (z-score),GlcNAc(b1-3)GalNAc,-0.136
same,glycan array binding signal (z-score),GlcNAc(b1-3)Man,0.024
same,glycan array binding signal (z-score),[1],-0.023
same,glycan array binding signal (z-score),[2],-0.254
same,glycan array binding signal (z-score),[3],-0.257
same,glycan array binding signal (z-score),[4],-0.15
same,glycan array binding signal (z-score),[5],-0.322
same,glycan array binding signal (z-score),GlcNAc(b1-4)GlcNAc,-0.142
same,glycan array binding signal (z-score),[6],0.023
same,glycan array binding signal (z-score),[7],-0.011
same,glycan array binding signal (z-score),[8],0.041
same,glycan array binding signal (z-score),[9],-0.206
same,glycan array binding signal (z-score),[10],0.05
same,glycan array binding signal (z-score),GlcNAc(b1-6)GalNAc,-0.146
same,glycan array binding signal (z-score),[11],-0.028
same,glycan array binding signal (z-score),Kdn(a2-3)Gal(b1-3)GalNAc,-0.152
same,glycan array binding signal (z-score),Kdn(a2-3)Gal(b1-3)GlcNAc,-0.149
same,glycan array binding signal (z-score),Kdn(a2-3)Gal(b1-4)Glc,-0.037
same,glycan array binding signal (z-score),Kdn(a2-3)Gal(b1-4)GlcNAc,-0.026
same,glycan array binding signal (z-score),[12],-0.238
same,glycan array binding signal (z-score),Kdn(a2-6)Gal(b1-4)GlcNAc,-0.287
same,glycan array binding signal (z-score),[13],-0.266
same,glycan array binding signal (z-score),[14],-0.219
same,glycan array binding signal (z-score),Man(a1-2)Man(a1-3)Man,-0.181
same,glycan array binding signal (z-score),[15],-0.284
same,glycan array binding signal (z-score),[16],-0.102
same,glycan array binding signal (z-score),[17],0.2
same,glycan array binding signal (z-score),[18],-0.199
same,glycan array binding signal (z-score),[19],-0.138
same,glycan array binding signal (z-score),[20],-0.24
same,glycan array binding signal (z-score),Man(a1-3)[Man(a1-6)]Man,-0.091
same,glycan array binding signal (z-score),[21],0.451
same,glycan array binding signal (z-score),[22],-0.024
same,glycan array binding signal (z-score),[23],-0.212
same,glycan array binding signal (z-score),[24],0.001
same,glycan array binding signal (z-score),[25],-0.263
same,glycan array binding signal (z-score),Man(a1-6)Man,-0.068
same,glycan array binding signal (z-score),Man(b1-4)GlcNAc,-0.188
same,glycan array binding signal (z-score),MurNAc(b1-4)GlcNAc,-0.252
same,glycan array binding signal (z-score),Neu5Ac(a2-3)Gal,-0.13
same,glycan array binding signal (z-score),[26],-0.245
same,glycan array binding signal (z-score),[27],0.481
same,glycan array binding signal (z-score),[28],-0.066
same,glycan array binding signal (z-score),[29],-0.065
same,glycan array binding signal (z-score),[30],-0.279
